About 16,000 (7.3%) of roughly 220,000 compounds were called active. This list was built around the results that the source calls inconclusive (neither active nor inactive); the mix of calls is not that of the screen. Calls come from the whole dose curve; as a rule, active = well fitted inhibition curve with a large enough effect (not every such curve was filed as active); inconclusive = small, poorly fitted or top-dose-only effect, or another doubt; inactive = no such curve, though single readings can be large or run the other way. No potency is given beside an inconclusive call; the fits are too rough.
Each compound was assayed against Aldehyde dehydrogenase 1A1 (Homo sapiens) (UniProt P00352) (assay: qHTS Assay for Inhibitors of Aldehyde Dehydrogenase 1 (ALDH1A1)). Conditions: Purified ALDH1A1, NADH fluorescence, propionaldehyde substrate; series mostly up to 75.3 µM.
UniProt P00352, sequence (P00352 whole entry, looked up): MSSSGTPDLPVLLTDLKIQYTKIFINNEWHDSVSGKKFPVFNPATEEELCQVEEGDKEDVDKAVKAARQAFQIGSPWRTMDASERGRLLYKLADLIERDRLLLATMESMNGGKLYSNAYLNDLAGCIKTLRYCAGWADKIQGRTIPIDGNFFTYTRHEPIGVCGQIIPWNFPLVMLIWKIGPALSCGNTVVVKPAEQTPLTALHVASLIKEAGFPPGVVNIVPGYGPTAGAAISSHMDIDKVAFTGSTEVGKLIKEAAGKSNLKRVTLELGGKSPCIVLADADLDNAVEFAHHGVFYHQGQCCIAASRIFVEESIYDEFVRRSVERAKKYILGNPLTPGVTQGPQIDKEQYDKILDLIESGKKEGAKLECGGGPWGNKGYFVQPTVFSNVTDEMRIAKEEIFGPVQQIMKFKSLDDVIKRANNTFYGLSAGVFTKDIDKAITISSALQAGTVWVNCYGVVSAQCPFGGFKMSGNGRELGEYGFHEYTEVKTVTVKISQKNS
Potency is the fitted concentration of half-maximal effect; tags give direction and shape of the fitted curve.
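Throughout, for activity, negative = inhibition: plate controls were no enzyme wells and a reference inhibitor.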

Row | Structure (SMILES) | Potency | activity, negative = inhibition
1 | COc1ccc(NC(=O)CC2C(=O)N(c3ccc(F)cc3)C(=S)N2NC(=O)c2ccccc2)cc1 (stereo not drawn) | inactive | 
2 | O=C(c1ccc(F)cc1)N1CCCCC(S(=O)(=O)c2ccccc2)C1=O (stereo not drawn) | inconclusive [inhibitor, partial curve] | 
3 | CCN(CC)S(=O)(=O)c1cccc(NC(=O)c2cc3ccccc3o2)c1 | active: 22.4 µM | 
4 | O=C(O)CCCC(=O)N1N=C(c2c(-c3ccccc3)c3cc(Cl)ccc3[nH]c2=O)CC1c1cccs1 (stereo not drawn) | inconclusive [inhibitor, partial curve] | 
5 | CC(Oc1ccc2oc3ccccc3c2c1)C(=O)NC12CC3CC(CC(C3)C1)C2 (stereo not drawn) | inconclusive [inhibitor, partial curve] | 
6 | CCN(CC)C(=O)c1sc(NC(=O)Cc2cccs2)c(C#N)c1C | inactive | 
7 | CCC(=O)c1ccc(/C=C/c2nc3ccccc3n2C)o1 | inconclusive [inhibitor, partial curve] | 
8 | CC(C)Cc1nnc(NC(=O)CSc2nc(N)cc(=O)[nH]2)s1 | inconclusive [inhibitor, single point] | 
9 | c1ccc(-c2ccc(C3=Nn4c(Cn5nnc6ccccc65)nnc4SC3)cc2)cc1 | active: 28.2 µM | 
10 | CCN(CC(=O)Nc1ccc2c(c1)OCCO2)CC(=O)Nc1ccc2c(c1)OCO2 | active: 10 µM | 
11 | COc1cc2[nH]c(=S)n(Cc3ccc(C)o3)c(=O)c2cc1OC | inconclusive [inhibitor, partial curve] | 
12 | CC(C)Sc1nnc(-c2c[nH]c3ccccc23)n1C | inconclusive [inhibitor, single point] | 
13 | CCCCCCC(=O)Nc1c(O)c2ccccc2[nH]c1=O | inconclusive [inhibitor, partial curve] | 
14 | COc1ccc(CN(C)C(=O)CCl)cc1 | active: 0.501 µM | 
15 | OCc1c(Cl)nc2ccccn12 | inactive | 
16 | CN1CCN(C(c2cc3cc4c(cc3[nH]c2=O)OCCO4)c2nnnn2C2CCCC2)CC1 (stereo not drawn) | inconclusive [inhibitor, partial curve] | 
17 | CC(=O)Nc1ccc(Nc2cc(C)nc3c(-c4ccccc4)cnn23)cc1 | inconclusive [inhibitor, single point] | 
18 | COc1ccc(-c2oc3ncn4nc(COc5ccccc5)nc4c3c2-c2ccc(OC)cc2)cc1 | inconclusive [inhibitor, partial curve] | 
19 | CC1(C)C(=O)Nc2ccccc2N1C(=O)COC(=O)C1CCCCC1 | inconclusive [inhibitor, single point] | 
20 | CCOc1ccc(S(=O)(=O)N2CCOCC2)cc1[N+](=O)[O-] | inactive | 
21 | Cc1cc(C)c2ccc(=S)[nH]c2n1 | active: 3.55 µM | 
22 | CN(C)CC/C=C1\c2ccccc2Sc2ccc(Cl)cc21 | inactive | 
23 | Fc1ccc(CSc2nnc(-c3cccnc3)n2Cc2ccco2)cc1 | inactive | 
24 | COC(=O)C1CCN(S(=O)(=O)c2c(C)n(C)c(=O)n(C)c2=O)CC1 | inactive | 
25 | COc1cc(/C=N/NC(=S)Nc2cccc(Cl)c2C)ccc1OCC(=O)N1CC(C)OC(C)C1 (stereo not drawn) | inconclusive [inhibitor, single point] | 

Row | Structure (SMILES) | Potency | activity, negative = inhibition
26 | Nc1ccc(N2CCCCCC2)cc1 | active: 7.94 µM | 
27 | Cc1ccc2nc(SCC(=O)N/N=C/c3ccco3)cc(C)c2c1 | inactive | 
28 | CCOc1ccc(OCC)c(S(=O)(=O)NCc2ccccn2)c1 | inconclusive [inhibitor, single point] | 
29 | O=C(c1ccccc1)N(CCO)Cc1cc2cc3c(cc2[nH]c1=O)OCCO3 | inconclusive [inhibitor, partial curve] | 
30 | Cc1ccc(-c2noc(CCC(=O)Nc3ccc4c(c3)OCO4)n2)cc1 | inconclusive [inhibitor, partial curve, poor fit] | 
31 | CC(=O)Nc1ccc(N2CCN(C(=O)c3cccs3)CC2)cc1 | inactive | 
32 | Cc1ccccc1OCC(=O)NCC(=O)N/N=C/c1ccc(Br)o1 | inactive | 
33 | COc1cccc(-c2nn(-c3ccccc3)cc2C(=O)Nc2nccs2)c1 | inconclusive [inhibitor, single point] | 
34 | O=C1NCCCC1C(=O)N/N=C/c1cccc([N+](=O)[O-])c1 (stereo not drawn) | inactive | 
35 | COc1cc(C)nc(Nc2nc(C)c(C(C)=O)s2)n1 | active: 1.58 µM | 
36 | CCOC(=O)CN1C(=O)S/C(=C/c2ccc(O)c([N+](=O)[O-])c2)C1=O | inconclusive [inhibitor, single point] | 
37 | CC(C)(Cc1ccc(O)cc1)NC(=O)CC(=O)N/N=C/c1ccc([N+](=O)[O-])cc1 | inconclusive [inhibitor, partial curve] | 
38 | Cc1cc(C)nc(NC(=O)/C=C/c2ccc3c(c2)OCO3)c1 | inconclusive [inhibitor, partial curve] | 
39 | O=C(CC(CC(=O)c1ccccc1)C(=O)O)c1ccccc1 | inactive | 
40 | COCCCn1cnc2oc3nc4ccccc4nc3c2c1=O | inconclusive [inhibitor, partial curve] | 
41 | Cc1ccc2oc3c(c(=O)c2c1)C(c1cccs1)N(CCCN(C)C)C3=O (stereo not drawn) | inconclusive [inhibitor, partial curve] | 
42 | Cc1ccc(NC(=O)CN2C(=O)NC3(CCCc4ccccc43)C2=O)cc1S(=O)(=O)N1CCOCC1 (stereo not drawn) | inactive | 
43 | CCCCNC(=S)N(C)/N=C/c1ccccc1F | inconclusive [inhibitor, single point] | 
44 | O=C(N/N=C/c1ccc(Cl)cc1Cl)C1CCN(c2ncc(C(F)(F)F)cc2Cl)CC1 | active: 3.55 µM | 
45 | CCN(CCn1cccn1)C(=O)CCc1nnc(Cc2c[nH]c3ccccc23)o1 | inconclusive [inhibitor, single point] | 
46 | Oc1ccc2c(c1)OC(c1ccc(O)c(O)c1)C(O)C2 (stereo not drawn) | inconclusive [inhibitor, single point] | 
47 | CN(C)S(=O)(=O)c1ccc(NC(=O)C2CCCN(C(=O)c3ccc(Cl)cc3)C2)cc1 (stereo not drawn) | active: 12.6 µM | 
48 | NS(=O)(=O)c1ccc(O)c(NC(=O)c2ccc([N+](=O)[O-])o2)c1 | active: 2.51 µM | 
49 | CC(=O)Nc1ccc(-c2csc(NC(C)c3ccccc3)n2)cc1 (stereo not drawn) | active: 17.8 µM | 
50 | Cc1oc(/C=N/NC(=O)CN(c2ccccc2Br)S(C)(=O)=O)cc1Br | inconclusive [inhibitor, single point] | 

Row | Structure (SMILES) | Potency | activity, negative = inhibition
51 | C/C(CC(=O)Nc1ccccc1-c1ccccc1)=N\NC(=O)COc1ccc(C)cc1Br | inconclusive [inhibitor, single point] | 
52 | C(=N\n1cncn1)/c1ccc(N2CCOCC2)cc1 | inconclusive [inhibitor, single point] | 
53 | Cc1ccc(C(=O)NC(C)CCc2ccccc2)cc1[N+](=O)[O-] (stereo not drawn) | inconclusive [inhibitor, partial curve] | 
54 | Oc1ccccc1-c1cc(-c2ccco2)[nH]n1 | active: 14.1 µM | 
55 | O=C(NCCc1ccccn1)c1cc(C(=O)C2CCCCC2)c[nH]1 | inconclusive [inhibitor, single point] | 
56 | CC1CCC/C(=N\NC(=S)Nc2ccccc2)C1 (stereo not drawn) | inconclusive [inhibitor, single point] | 
57 | CCOC(=O)c1c(C)[nH]c(C(=O)COC(=O)/C=C/c2cccc(OC)c2OC)c1C | inconclusive [inhibitor, single point] | 
58 | Cc1ccc(NC(=O)C2CCCN(C(=O)c3ccc(Cl)cc3)C2)cc1C (stereo not drawn) | inconclusive [inhibitor, single point] | 
59 | C=CC[C@@H](C(=O)O)c1ccccc1 |  | inactive: 3.35% [at 13.5 µM]
60 | C=CCc1ccc(OC)c(OC)c1 | inconclusive [inhibitor, single point] | 
61 | Cc1ccc2c(c1)N[C@H](c1ccc(C(=O)O)cc1)c1cccn1-2 | inconclusive [inhibitor, single point] | 
62 | COC(=O)c1[nH]c2ccc(C)cc2c1NC(=O)CCN1CCN(Cc2ccc3c(c2)OCO3)CC1 | inconclusive [inhibitor, single point] | 
63 | C=C(C)COc1ccc(-c2nc(N)ncc2Oc2ccccc2OC)c(O)c1 | inconclusive [inhibitor, single point] | 
64 | Cc1csc(SCC(=O)Nc2cccc(S(=O)(=O)N3CCCC3)c2)n1 | active: 25.1 µM | 
65 | CC(C)C1N=C2c3ccccc3N=C(SCC(=O)NCCc3ccc(S(N)(=O)=O)cc3)N2C1=O (stereo not drawn) | inconclusive [inhibitor, partial curve] | 
66 | Cc1nc2ccc(-c3nc4cc(N)ccc4o3)cc2[nH]1 | inconclusive [inhibitor, single point] | 
67 | Nc1ncnc2c1nc(Br)n2C1O[C@H]2COP(=O)(O)O[C@@H]2C1O (stereo partly drawn) | inactive | 
68 | c1ccc(-c2cccc(N3CCC4(CCNCC4)CC3)c2)cc1 | inconclusive [inhibitor, single point] | 
69 | O=C(CCNS(=O)(=O)c1cccs1)NCc1ccco1 | inactive | 
70 | CCOC(=O)/C(C#N)=C/c1ccc(OC)c(OC)c1 | inconclusive [inhibitor, partial curve] | 
71 | Cc1ccc(-c2nnn(CC(=O)NCC3COCCO3)n2)o1 (stereo not drawn) | inactive | 
72 | Nc1nc(-c2ccc(Cl)cc2)c(S(=O)(=O)c2ccccc2)s1 | inconclusive [inhibitor, single point] | 
73 | O=C(NCc1ccccn1)C(C(=O)c1cccc([N+](=O)[O-])c1)n1cc(Cl)ccc1=O (stereo not drawn) | inconclusive [inhibitor, single point] | 
